Measurements taken from the supplement of paper PMC4604168 (melanoma cell lines).
The list shows a part of the results. Most values come without repeats; read them as rough.

Key:
Experiment in all cases: cell count relative to DMSO control; melanoma cells; higher = more viable cells
Settings in all cases: library dose: low library concentration; 72 h
WM115 = test system: WM115
WM1716 = test system: WM1716
WM1745 = test system: WM1745
WM3526 = test system: WM3526
WM3619 = test system: WM3619
WM451Lu = test system: WM451Lu
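Further: cell number obtained by counting DAPI-stained nuclei in high-throughput microscope images with image analysis software, screen run in 1,536-well plates.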

Row | SMILES | cell count (WM115) [%] | cell count (WM1716) [%] | cell count (WM1745) [%] | cell count (WM3526) [%] | cell count (WM3619) [%] | cell count (WM451Lu) [%]
1 | Cc1cn(-c2cc(NC(=O)c3ccc(C)c(Nc4nccc(-c5cccnc5)n4)c3)cc(C(F)(F)F)c2)cn1 [nilotinib] + CO[C@H]1C[C@@H]2CC[C@@H](C)[C@@](O)(O2)C(=O)C(=O)N2CCCC[C@H]2C(=O)O[C@H]([C@H](C)C[C@@H]2CC[C@@H](OCCO)[C@H](OC)C2)CC(=O)[C@H](C)/C=C(\C)[C@@H](O)[C@@H](OC)C(=O)[C@H](C)C[C@H](C)/C=C/C=C/C=C/1C [everolimus] (first compound 0.2 µM, partner dose 0.02 µM) | 78.9 | 75.8 | 74.7 | 75.2 | 89.6 | 94.3
2 | CC(C)C[C@H](NC(=O)[C@H](Cc1ccccc1)NC(=O)c1cnccn1)B(O)O [Bortezomib] + C=CCn1c(=O)c2cnc(Nc3ccc(N4CCN(C)CC4)cc3)nc2n1-c1cccc(C(C)(C)O)n1 [MK1775] (first compound 0.001 µM, partner dose 0.02 µM) | 78.7 | 40.5 | 74.1 | 80.1 | 41.2 | 95.2
3 | COc1ccc(C2=N[C@@H](c3ccc(Cl)cc3)[C@@H](c3ccc(Cl)cc3)N2C(=O)N2CCNC(=O)C2)c(OC(C)C)c1 [Nutlin-3] + COc1cc2ncnc(Nc3ccc(Oc4ccccc4)cc3)c2cc1OC [SrcI1] (first compound 0.1 µM, partner dose 2 µM) | 89.9 | 95.5 | 88.9 | 90 | 93.4 | 93.1
4 | COc1ccc(C2=N[C@@H](c3ccc(Cl)cc3)[C@@H](c3ccc(Cl)cc3)N2C(=O)N2CCNC(=O)C2)c(OC(C)C)c1 [Nutlin-3] + Nc1ncn([C@H]2C[C@H](O)[C@@H](CO)O2)c(=O)n1 [decitabine] (first compound 0.1 µM, partner dose 0.1 µM) | 75.4 | 77.7 | 88.8 | 115 | 81.6 | 118
5 | COc1ccc(C2=N[C@@H](c3ccc(Cl)cc3)[C@@H](c3ccc(Cl)cc3)N2C(=O)N2CCNC(=O)C2)c(OC(C)C)c1 [Nutlin-3] + COC(=O)c1sccc1S(=O)(=O)Nc1ccc(Nc2ccccc2)cc1OC [GSK0660] (first compound 0.1 µM, partner dose 1 µM) | 93.5 | 104 | 102 | 84.9 | 94.1 | 105
6 | Cc1cc(Nc2cc(N3CCN(C)CC3)nc(/C=C/c3ccccc3)n2)n[nH]1 + OCc1c[nH]c2ccccc12 [Indole-3-carbinol] (first compound 0.04 µM, partner dose 0.8 µM) | 96.2 | 102 | 94.9 | 121 | 86.4 | 92.5
7 | COc1ccc(C2=N[C@@H](c3ccc(Cl)cc3)[C@@H](c3ccc(Cl)cc3)N2C(=O)N2CCNC(=O)C2)c(OC(C)C)c1 [Nutlin-3] + C=CCn1c(=O)c2cnc(Nc3ccc(N4CCN(C)CC4)cc3)nc2n1-c1cccc(C(C)(C)O)n1 [MK1775] (first compound 0.1 µM, partner dose 0.02 µM) | 68.7 | 75.3 | 76.2 | 81.8 | 70.6 | 103
8 | CC(C)C[C@H](NC(=O)[C@H](Cc1ccccc1)NC(=O)c1cnccn1)B(O)O [Bortezomib] + CC1(C)NC(=O)N(c2ccc([N+](=O)[O-])c(C(F)(F)F)c2)C1=O [nilutamide] (first compound 0.001 µM, partner dose 1 µM) | 100 | 29.6 | 68.3 | 85.5 | 21.6 | 85.2
9 | Cn1c(=O)n(-c2ccc(C(C)(C)C#N)cc2)c2c3cc(-c4cnc5ccccc5c4)ccc3ncc21 + Nc1ncn([C@H]2C[C@H](O)[C@@H](CO)O2)c(=O)n1 [decitabine] (first compound 0.004 µM, partner dose 0.1 µM) | 84.4 | 76.3 | 88.9 | 82.2 | 71.7 | 96.9
10 | Cc1cc(Nc2cc(N3CCN(C)CC3)nc(/C=C/c3ccccc3)n2)n[nH]1 + Cc1nc(Nc2ncc(C(=O)Nc3c(C)cccc3Cl)s2)cc(N2CCN(CCO)CC2)n1 [dasatanib] (first compound 0.04 µM, partner dose 0.004 µM) | 93.5 | 92 | 100 | 87.8 | 91.3 | 99.1
11 | COc1ccc(C2=N[C@@H](c3ccc(Cl)cc3)[C@@H](c3ccc(Cl)cc3)N2C(=O)N2CCNC(=O)C2)c(OC(C)C)c1 [Nutlin-3] + C[C@]1(O)C[C@@H](c2nc(-c3ccc4ccc(-c5ccccc5)nc4c3)c3c(N)nccn32)C1 [OSI906] (first compound 0.1 µM, partner dose 0.4 µM) | 103 | 66 | 67.6 | 89 | 77 | 110
